Values joined by “and” are separate entries in the source; they are usually repeats but may differ in a detail not shown here. Equal values may be shown once. About 50,000 (12%) of roughly 420,000 compounds were called active. The inconclusive results got no clear call from the source; some entries with a clear call stand among them for comparison. Calls come from the whole dose curve; as a rule, active = well fitted inhibition curve with a large enough effect; inconclusive = small, poorly fitted or top-dose-only effect; inactive = flat fitted curve, though single readings scatter. Potencies of inconclusive entries are doubtful fits and often do not repeat.
experiment: qHTS for Inhibitors of human tyrosyl-DNA phosphodiesterase 1 (TDP1): qHTS in cells in presence of CPT; conditions: chicken DT40 Tdp1-/-;hTDP1 cells + 20 nM CPT, ATP luminescence, 48 h; activity change, negative = growth inhibition: at 46.2 µM (top of the series) unless noted; note: nearly all actives have a fitted effect of over 55% in size
Method in brief: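 Chicken DT40 Tdp1-/- cells complemented with human TDP1, 400 cells/well, exposed to compounds plus 20 nM camptothecin for at least 48 h at 37 C; viability read as ATP content by CellTiter-Glo luminescence.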
% is set by controls: 0 for no effect and ±100 for the full control effect; potency is the fitted concentration of half-maximal effect; tags give direction and shape of the fitted curve.

Row | Compound | Potency | activity change, negative = growth inhibition
1 | O=C(C1CCN(S(=O)(=O)c2cccc3cccnc23)CC1)N1CCCCC1 | inactive | –
2 | Cc1ccc(CNC(=O)c2cc(C)nc3c2c(C)nn3-c2ccc(C)cc2)cc1 | inconclusive: 29.1 µM [inhibitor, single point] | –
3 | Cc1c(C)n(CCCN(C)C)c2ncnc(NC3CCCCC3)c12 | inconclusive: 23.1 µM [inhibitor, single point] | –
4 | Cc1ccc(Cn2nc(C)cc2C(=O)Nc2ccc(Cl)cc2)cc1 | inconclusive: 25.9 µM [inhibitor, single point] | –
5 | CCc1ccc2c(CN(C)Cc3ccccc3OC)cc(=O)oc2c1 | inconclusive: 25.9 µM [inhibitor, single point] | –
6 | CC(=O)c1ccc(NC(=O)c2cnn(-c3cccc(F)c3)c2-n2cccc2)cc1 | inconclusive: 25.9 µM [inhibitor, single point] | –
7 | CSCCC(NC(=O)COc1ccccc1)C(=O)NC1CCC(C)CC1 (centres undefined) | inconclusive: 29.1 µM [inhibitor, single point] | –
8 | CCN(CC)CCCCNc1ncc2cc(-c3cc(OC)cc(OC)c3)c(NC(=O)NC(C)(C)C)nc2n1 | inconclusive: 29.1 µM [inhibitor, single point] | –
9 | CCC(=O)c1ccc(N2CCN(C(=O)c3ccccc3Br)CC2)c(F)c1 | inconclusive: 18.4 µM [inhibitor, partial curve] | –
10 | CC1CCCCN1C(=S)NC(=O)c1ccccc1 (centres undefined) | inconclusive: 25.9 µM [inhibitor, single point] | –
11 | CCCCCCNCC1OCc2ccccc2CO1 | inconclusive: 18.4 µM [inhibitor, single point] | –
12 | CCCCCCCNC(=O)c1ccc(N2CCC3(CC2)OCCO3)c([N+](=O)[O-])c1 | inconclusive: 18.4 µM [inhibitor, single point] | –
13 | CCOc1ccc(NC(=O)CN(C)Cc2cc(=O)n3c(-c4ccccc4)csc3n2)cc1OCC | – | inconclusive: -34.2% [inhibitor]
14 | COc1cccc(-n2c(SCC(N)=O)nnc2-c2c[nH]c3ccccc23)c1 | inactive | –
15 | CCCCn1c(SCC(=O)Nc2cc(NC(=O)c3ccco3)ccc2C)nc2ccccc2c1=O | inconclusive: 20.6 µM [inhibitor, single point] | –
16 | c1ccc(CCNc2ncnc3ccccc23)cc1 | active: 0.517 µM | –
17 | O=C(COc1c(F)c(F)c(C(F)(F)F)c(F)c1F)Nc1ccc(N2CCOCC2)c(Cl)c1 | inconclusive: 16.4 µM [inhibitor, partial curve] | –
18 | COc1ccc2[nH]c(=O)c(CN(Cc3ccco3)C(=O)c3ccccc3)cc2c1 | inconclusive: 16.4 µM [inhibitor, partial curve] | –
19 | CC(C)CNc1nnnc2c1sc1nc(N3CCOCC3)c3c(c12)CCCC3 | inconclusive: 2.91 µM [inhibitor, partial curve] | –
20 | COc1ccc(CCNC(=O)c2cc(-c3ccccn3)nc3ccccc23)cc1 | inconclusive: 29.1 µM [inhibitor, single point] | –
21 | CC(C)N(CCCNC(=O)Cn1c(=O)c2cccn2c2ccc(F)cc21)Cc1ccccc1 | inactive | –
22 | CCCCn1c(-c2ccc(Br)cc2F)nc2c1c(=O)[nH]c(=O)n2CC(C)C | active: 20.6 µM | –
23 | O=C1Nc2cc(Cl)ccc2C1(N1CCNCC1)C(F)(F)F (centres undefined) | inconclusive: 20.6 µM [inhibitor, single point] | –

Row | Compound | Potency | activity change, negative = growth inhibition
24 | Cc1cc(C)nc(NS(=O)(=O)c2ccc(NC(=O)c3ccc(O)cc3O)cc2)n1 | inactive | –
25 | COc1ccccc1CNC(=O)Cc1csc(NC(=O)Nc2ccccc2OC)n1 | active: 16.4 µM | –
26 | Cc1cc(C)n(CC(C)NC(=O)c2cc(COc3c(F)cccc3F)on2)n1 (centres undefined) | inactive | –
27 | COC(=O)c1cc(S(=O)(=O)Nc2cccc(-c3ccno3)c2)c[nH]1 | active: 11.6 µM | –
28 | c1ccc(OCc2nn3c(-c4ccncc4)nnc3s2)cc1 | inactive | –
29 | Cc1ccc(C)c(C(O)c2ncc(-c3ccccc3)[nH]2)c1 (centres undefined) | inconclusive: 11.6 µM [inhibitor, partial curve, poor fit] | –
30 | C/C(Cl)=C/Cc1c(C)[nH]c2c(ccc3ccccc32)c1=O | inconclusive: 20.6 µM [inhibitor, single point] | –
31 | CC1CN(C(=O)c2ccc(-c3cccc(C(F)(F)F)c3)o2)CC(C)O1 (centres undefined) | inconclusive: 29.1 µM [inhibitor, single point] | –
32 | CCOC(=O)N1CCN(C(=O)C[C@@H]2C[C@@]3(C(=O)OC)CC(C)(C)CC=C3N(CCc3ccc(OC)c(OC)c3)C2=O)CC1 | inconclusive: 16.4 µM [inhibitor, single point] | –
33 | CC(C)c1ccccc1NC(=S)NCc1ccccc1F | inconclusive: 20.6 µM [inhibitor, single point] | –
34 | Cc1ccc2nc(-c3ccc(C#N)cc3)c(Cc3cccc(Cl)c3)n2c1 | active: 18.4 µM | –
35 | O=C(Nc1ccc(Cl)cc1)c1nc[nH]c1C(=O)Nc1ccccc1F | inconclusive: 25.9 µM [inhibitor, single point] | –
36 | CCOc1ccc(CCNC(=O)c2ccc3c(c2)c(C)c(C)n3Cc2ccccc2)cc1OCC | active: 16.4 µM | –
37 | CN(C)CCNc1ccc(CO)c2sc3ccc(O)cc3c(=O)c12 | active: 0.0259 µM | –
38 | CCn1c2ccccc2c2cc(CN3CCOc4ccc(C(O)c5cccnc5)cc4C3)ccc21 (centres undefined) | inconclusive: 18.4 µM [inhibitor, single point] | –
39 | N#Cc1c(Cl)nsc1NC(=O)c1ccccc1 | active: 13 µM | –
40 | CCCC1=[N+](CC(C)=O)CCn2c(C)ccc21 | active: 3.26 µM | –
41 | COc1cccc(C(NC(C)=O)c2nc(-c3csc4ccccc34)cs2)c1 (centres undefined) | inconclusive: 29.1 µM [inhibitor, single point] | –
42 | O=S(=O)(c1ccc(Cl)cc1)c1nc(-c2ccco2)oc1SCc1ccc(F)cc1 | inconclusive: 23.1 µM [inhibitor, single point] | –
43 | O=C(NC[C@@H]1CCCO1)c1cccc2c1C(=O)c1ccc(Cl)cc1S2(=O)=O | inactive | –
44 | COc1ccc(CCN2C(=O)c3[nH]nc(-c4ccccc4O)c3C2c2ccc(OC)cc2)cc1 (centres undefined) | inconclusive: 23.1 µM [inhibitor, single point] | –
45 | CC(C)Nc1nc(C#N)nc(NC(C)C)n1 | inconclusive: 35.5 µM [inhibitor, single point] and inconclusive: 25.9 µM [inhibitor, single point] | –
46 | COc1ccc(CCNS(=O)(=O)c2ccc3c(c2)NC(=O)CCS3)cc1OC | active: 11.6 µM | –

Row | Compound | Potency | activity change, negative = growth inhibition
47 | Oc1ccc(-c2csc(NCc3ccco3)n2)cc1 | inconclusive: 29.1 µM [inhibitor, partial curve] | –
48 | CCCCn1c(SCC(=O)Nc2nnc(CC)s2)nc2ccccc2c1=O | inactive | –
49 | CCOC(=O)c1cc(S(=O)(=O)NCc2ccc(C)cc2)[nH]n1 | – | inconclusive: -30.4% [inhibitor]
50 | CC1(C(=O)NS(=O)(=O)c2ccccc2Cl)CCN1C(=O)C1(c2ccccc2)CC1 (centres undefined) | inactive | –
51 | COc1ccc(C2=NN(C(=O)c3ccccc3)C(c3ccccc3)C2)c(O)c1 (centres undefined) | inconclusive: 29.1 µM [inhibitor, single point] | –
52 | CCC(Cc1c(I)cc(I)c(O)c1I)C(=O)O (centres undefined) | inconclusive: 18.8 µM [inhibitor, single point] | –
53 | COc1ccccc1NC(=O)CCCc1nnc2n(C)c(=O)c3sccc3n12 | inactive | –
54 | CCc1nc2ccc(C(=O)N3CCCCC3)cn2c1N(C)CCCc1ccccc1 | inconclusive: 29.1 µM [inhibitor, single point] | –
55 | N#Cc1cccc(CSc2ncnc(N)n2)c1 | inactive | –
56 | CC(C)(C)S(=O)N1Cc2cc(C(=O)NCc3ccc4c(c3)OCO4)nc(-c3cccc(-c4ccncc4)c3)c2[C@H]1CCO (some centres undefined) | inconclusive: 29.1 µM [inhibitor, single point] | –
57 | O=[N+]([O-])c1cccc(/C=C/c2nc3ccc([N+](=O)[O-])cc3[nH]2)c1 | inconclusive: 29.1 µM [inhibitor, single point] | –
58 | C[n+]1ccc(/C=C/c2ccc3ccccc3c2)cc1 | inconclusive: 18.4 µM [inhibitor, single point] | –
59 | C/C=C/c1ccc(OCCCCOc2c(OC)cccc2OC)c(OC)c1 | inconclusive: 29.1 µM [inhibitor, single point] | –
60 | COc1cc(OC)c(OC)cc1CN1CCOc2ccc(CN3CCN(C(C)=O)CC3)cc2C1 | – | inactive: -7.49% [at 9.04 µM]
61 | Cc1cccc(C)c1-n1nnnc1C(c1ccnc2ccccc12)N1CCN(C/C=C/c2ccccc2)CC1 (centres undefined) | active: 9.2 µM | –
62 | COc1ccc(NC(=O)c2ccc(OC)c(S(=O)(=O)N3CCCCC3C)c2)cn1 (centres undefined) | inconclusive: 16.4 µM [inhibitor, partial curve] | –
63 | CCOC(=O)c1cc2c(=O)[nH]c(C(Cl)(Cl)Cl)nc2o1 | inconclusive: 29.1 µM [inhibitor, single point] | –
64 | Cc1cccc(N2CCN(C(=O)c3cc(S(=O)(=O)N4CCOCC4)cn3C)CC2C)c1 (centres undefined) | inconclusive: 16.4 µM [inhibitor, single point] | –
65 | O=C(NCCN1CCCCC1)c1ccc(I)cc1 | inactive | –
66 | CSCCCN1CCC(n2nccc2NC(=O)CCCc2ccccc2)CC1 | – | inconclusive: -32.8% [inhibitor]
67 | COc1ccc(NC(=O)CN(c2cc(C)cc(C)c2)S(=O)(=O)c2c(C)noc2C)cc1Cl | inconclusive: 20.6 µM [inhibitor, single point] | –
68 | Cc1cn(-c2ccc(Br)cc2)[nH]c1=O | inactive | –
69 | Cc1cccc(C(=O)Nc2nnc(C3=COCCO3)o2)c1 | inconclusive: 18.4 µM [inhibitor, single point] | –

Source: PubChem BioAssay AID686979 (National Center for Advancing Translational Sciences (NCATS), 2013)
